The values below come from ChEMBL document CHEMBL4888484, “Replenishing the malaria drug discovery pipeline: Screening and hit evaluation of the MMV Hit Generation Library 1 (HGL1) against asexual blood stage Plasmodium falciparum ,using a nano luciferase reporter read-out” (2022).

In all, about 150,000 compounds went through this assay and about 540 (0.36%) showed an effect of 50% or more. Some of the results follow.

This assay concerns Plasmodium falciparum. The assay can be described thus: Primary screen in NF54 nanoGlo assay, in single point, at 2uM, 72h; a lower Z score goes with more inhibition. In kind it is functional, Erythrocyte. Conditions: timepoint 72 hour.
In the case of `CCCC[C@@H](CC(=O)O)NC(=O)c1c(F)cccc1OC`, the “% Inhibition” value is listed as -6% and the Z score amounted to 0.71.

In the case of `CCOC(=O)c1cccnc1-c1cccc(-c2ccn(CCO)n2)c1`, the “% Inhibition” value is -6% and the Z score worked out at 0.91.

As to `CC(C)(CC(=O)NC1CC[S+]([O-])C1)CC(=O)c1ccccc1` (stereo not drawn), the “% Inhibition” value is 1% and the Z score is -0.07.

As for `c1ccc(Cc2cc(C3CCN(Cc4c[nH]cn4)CC3)[nH]n2)cc1`, the “% Inhibition” value is reported as -2% and the Z score came out at 0.27.

Turning to `CCc1cc(N2CCC(NCc3cc(C)nn3C)CC2)nc(N(C)C)n1`, the “% Inhibition” value amounted to 6% and the Z score was -1.08.

For the compound `COc1ccc(OC)c(-c2csc(Cc3nccn3Cc3ccccc3)n2)c1`, the “% Inhibition” value is 15% and the Z score was -2.01.

Consider `CCCc1ncc(C(=O)NC[C@H](O)c2ccco2)s1`, for which the “% Inhibition” value was -11% and the Z score is given as 2.05.

For `O=c1c2cnc(N3CCc4ccccc4C3)nc2ccn1-c1ccccc1F`, the “% Inhibition” value is on record as -6% and the Z score is recorded as 0.99.

As to `O=C(CCc1ccc(Cl)s1)NCC1CCCC1O` (stereo not drawn), the “% Inhibition” value is -9% and the Z score worked out at 1.16.

Consider `CCNc1ncnc2sc(C(=O)N3CCCC[C@@H]3CC)c(C)c12`, for which the “% Inhibition” value turned out to be 6% and the Z score is listed as -0.87.

As for `C[C@H](NCc1ncn(C)n1)c1ccc(OC(C)(C)C)cc1`, the “% Inhibition” value is -1% and the Z score is 0.1.

For the compound `Cc1ccc(CCNC(=O)N2CCOC[C@@H]2CC2CCOCC2)o1`, the “% Inhibition” value is 12% and the Z score is reported as -2.25.

As for `CCC[C@](C)(N)C(=O)Nc1cncc(Br)c1O`, the “% Inhibition” value is reported as -20% and the Z score turned out to be 2.64.

On to `CN(c1cccc(O)c1)S(=O)(=O)c1ccc2c(c1)OCCCO2`, for which the “% Inhibition” value is on record as -13% and the Z score was 2.57.

For `CCc1ccc(CNC(=O)[C@@H]2CCCO2)s1`, the “% Inhibition” value is -17% and the Z score stood at 1.9.

Turning to `C[C@@H](C1CCN(C(=O)c2ccc(OC(F)F)cc2)CC1)N1CCN(C)CC1`, the “% Inhibition” value is on record as -12% and the Z score stood at 1.49.

Consider `NC(N)=Nc1nc(-c2ccc(N3CCCC3=O)cc2)cs1`, for which the “% Inhibition” value came to 0% and the Z score is reported as 0.03.

Take `C#CCNC(=O)CNS(=O)(=O)c1ccc(Br)cc1C`: the “% Inhibition” value is recorded as -4% and the Z score amounted to 0.49.

`O=C(NCCCOC[C@H]1CCCO1)NCc1noc(-c2cccc(Br)c2)n1`: the “% Inhibition” value is recorded as -7% and the Z score is listed as 1.21.

On to `CCc1nsc(NCCNC(=O)c2cccc(C)c2)n1`, for which the “% Inhibition” value was determined as 0% and the Z score is -0.01.

With `COc1ccc(CN2CC[C@]3(CO)CN(Cc4ccccc4)C[C@@H]3C2)c(Cl)c1OC`, the “% Inhibition” value is on record as 6% and the Z score was -1.14.

Consider `COc1ccc(CCC(=O)N2C[C@@H]3CN(C(=O)C(C)C)C[C@]3(C(=O)N3CCCC3)C2)cc1`, for which the “% Inhibition” value is -18% and the Z score is reported as 2.42.

For the compound `CN(C)C[C@H](O)c1cc2n(n1)CCCN(C(=O)c1cc(Cl)ccc1F)C2`, the “% Inhibition” value was -12% and the Z score turned out to be 1.55.

As to `C=CCn1cc(CNC[C@H](O)c2ccccc2Cl)c(C)n1`, the “% Inhibition” value is reported as -9% and the Z score turned out to be 0.98.

As to `Nc1ccc(OCc2cc(C(F)(F)F)cc(C(F)(F)F)c2)nc1`, the “% Inhibition” value is recorded as -11% and the Z score amounted to 1.48.

As for `CCN(Cc1nc(-c2cnoc2C)cs1)C(=O)OC(C)(C)C`, the “% Inhibition” value is -6% and the Z score was found to be 1.22.

As to `COc1ccc(C2OC(COc3ccccc3)CN(C(=O)c3ccccc3)O2)cc1OC` (stereo not drawn), the “% Inhibition” value is given as -3% and the Z score is listed as 0.36.

Turning to `Cc1cc(C(=O)Nc2nc(C(=O)N3CCN(c4ccccc4O)CC3)co2)no1`, the “% Inhibition” value came out at 0% and the Z score is on record as -0.01.

As to `CC[C@]1(O)CCN(C(=O)Cc2cc3c(cc2Cl)OCCO3)C[C@@H]1O`, the “% Inhibition” value is 4% and the Z score is on record as -0.74.

In the case of `CC1CN(CC2CCCCO2)CC(C)O1` (stereo not drawn), the “% Inhibition” value is listed as -11% and the Z score was 0.95.

Take `CCN1C[C@@H](c2ccccc2)CC2(CCN(S(C)(=O)=O)CC2)C1`: the “% Inhibition” value is given as -7% and the Z score amounted to 0.93.

On to `CCCn1cc(CN2CCn3nc(CNc4ncccn4)cc3C2)c(C)n1`, for which the “% Inhibition” value is -8% and the Z score was 1.27.

On to `C[C@@H](c1nc(CC(N)=O)nn1-c1ccc(Cl)cc1)N1CCCC1`, for which the “% Inhibition” value was -17% and the Z score is 1.96.

Consider `Cc1c(N[C@@H](C(N)=O)c2ccccc2)c(=O)n(-c2ccccc2)n1C`, for which the “% Inhibition” value is reported as 0% and the Z score is given as -0.01.

`Cc1c(C(C)C)c(=O)n(-c2ccc(S(=O)(=O)N3CC(=O)Nc4ccccc43)cc2)n1C`: the “% Inhibition” value was found to be 29% and the Z score is given as -3.96.

With `COc1nc2c(cc1CNC1CCN(C)CC1)C(=O)N(C1CCCC1)C2`, the “% Inhibition” value is given as -10% and the Z score turned out to be 1.2.

In the case of `Cc1ccc(C(=O)N2CCC(CC(=O)NCCCN3CCN(C4CCCCC4)CC3)CC2)cc1`, the “% Inhibition” value came to 0% and the Z score is -0.03.

As to `O=C(Cn1cc(N[C@H]2CCc3ccccc32)cn1)NCCO`, the “% Inhibition” value is -21% and the Z score was 3.93.

In the case of `C[C@@H](C(=O)O)n1cc(-c2cc(-c3ccco3)c(C#N)c(N)n2)c2ccccc21`, the “% Inhibition” value is listed as -7% and the Z score was 1.12.

Take `Cc1cc(NC(=O)[C@H](C)OC(=O)c2[nH]c3ccc(Cl)cc3c2Cl)on1`: the “% Inhibition” value is -1% and the Z score is on record as 0.09.

With `Cc1c(C(=O)N2CCC[C@H](n3ccnn3)C2)cnn1C`, the “% Inhibition” value is recorded as 0% and the Z score is reported as 0.04.

Take `COc1cc(CN2CC[C@H](NC(=O)c3n[nH]nc3C)C2)cc(OC)c1`: the “% Inhibition” value is -8% and the Z score amounted to 0.64.

For the compound `Cc1ccc(C2CCN(S(=O)(=O)c3ccc(C)o3)CC2)cn1`, the “% Inhibition” value is given as -7% and the Z score was 0.72.

`Cc1ccc(C(=O)Nc2c(C)nc(N3CCOCC3)nc2C)cc1C`: the “% Inhibition” value turned out to be 13% and the Z score is on record as -2.05.

As for `C[C@H]1CCCCN1C(=O)COCC(F)(F)F`, the “% Inhibition” value is reported as -4% and the Z score was 0.4.

`Cc1nc(NC[C@@H]2N(C)CCCC2(C)C)cc(-c2cccnc2)n1`: the “% Inhibition” value is given as -3% and the Z score came out at 0.63.

Take `Cc1cnc([C@@H](NS(=O)(=O)c2cnnn2C)C2CC2)s1`: the “% Inhibition” value is -10% and the Z score is recorded as 1.45.

As to `COc1cccc2c1CC[C@H](NCc1ccccc1S(C)(=O)=O)C2`, the “% Inhibition” value was -5% and the Z score came out at 0.62.

As for `Cc1ccc(C(=O)NCCN(CCN2CCOCC2)C(=O)c2ccc(C)s2)s1`, the “% Inhibition” value is on record as -2% and the Z score is on record as 0.29.

Turning to `Cn1c(=O)[nH]c(=O)c2cc(S(=O)(=O)Nc3ccc(C(C)(C)C)nn3)cnc21`, the “% Inhibition” value is recorded as -13% and the Z score came to 2.44.

As for `Cn1ccc2c(-c3nccc(N4CCC[C@H](O)C4)n3)ccnc21`, the “% Inhibition” value is recorded as 0% and the Z score is recorded as -0.01.

For the compound `Fc1cccc(Oc2nc(N3CCCCC3)nc3c2CN(Cc2ccccn2)CC3)c1`, the “% Inhibition” value is recorded as 5% and the Z score is listed as -0.73.

In the case of `CCOC(=O)c1n[nH]c2c1C(C)CCC2C(C)C` (stereo not drawn), the “% Inhibition” value was -8% and the Z score came to 0.96.

On to `CCOC(=O)[C@H]1CCCN(C(=O)c2cc(-c3ccccc3OC)n3nc(-c4ccccc4)cc3n2)C1`, for which the “% Inhibition” value is reported as -2% and the Z score stood at 0.27.
